# From patent publication US20260337278 (published 2026)
# Where two headings read alike, the source gives them in different places.
# Experiments:
# Experiment in all cases: BLI
# [1] = molecular target: T1, EGFR (wild-type, His-tagged or biotinylated) (human, UniProt P00533)
# [2] = molecular target: T2, EGFRvIII (human, UniProt P00533)
# [3] = molecular target: T1, EGFR (wild-type, His-tagged or …); remark: listed apart in the source
# [4] = molecular target: T2, EGFRvIII; remark: listed apart in the source
Binder,Kd [1],Kd [2],Kd [3],Kd [4]
SI-95X43 (antibody) chain 1: DVQLQESGPSLVKPSQSLSLTCTVTGYSITSDFAWNWIRQFPGNKLEWMGYISYSGNTRYNPSLKSRISITRDTSKNQFFLQLNSVTIEDTATYYCVTAGRGFPYWGQGTLVTVSAASTKGPSVFPLAPSSKSTSGGTAALGCLVKDYFPEPVTVSWNSGALTSGVHTFPAVLQSSGLYSLSSVVTVPSSSLGTQTYICNVNHKPSNTKVDKRV[human IgG1 Fc omitted here] chain 2: not shown,1.18 nM,0.838 nM,–,–
SI-95X36 (antibody) chain 1: DVQLQESGPSLVKPSQSLSLTCTVTGYSITSDFAWNWIRQFPGNKLEWMGYISYSGNTRYNPSLKSRISITRDTSKNQFFLQLNSVTIEDTATYYCVTAGRGFPYWGQGTLVTVSAASTKGPSVFPLAPSSKSTSGGTAALGCLVKDYFPEPVTVSWNSGALTSGVHTFPAVLQSSGLYSLSSVVTVPSSSLGTQTYICNVNHKPSNTKVDKRV[human IgG1 Fc omitted here] chain 2: not shown,–,–,1.44 nM,0.401 nM
